Reference: US20190321426A1, “COMBINATION THERAPIES WITH CANNABIS PLANT EXTRACT” (TIKUN OLAM LTD, priority 2016, published 2019)

Test system: infiltration of immune cells into the spinal cord in EAE mice
Test: Histology of immune cell infiltration into the spinal cord in EAE mice (eosin/hematoxylin)
Conditions: sixty days after PLP injection; versus non-treated control mice

With glatiramer acetate [Copaxone] as the substance, how does the “infiltration of immune cells into the spinal cord” value read?
The value was “almost total reduction”.
